These results are taken from the supplement of paper PMC12645437, “Orthogonal IMiD-Degron Pairs Induce Selective Protein Degradation in Cells” (ACS Chemical Biology, 2025).

The other results are listed elsewhere or left out.
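Note: jurkat cells carrying a lentiviral library of mutant zinc finger degrons fused to EGFP plus mCherry, mCherry+ cells FACS sorted, degron abundance counted by next-generation sequencing.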

The assay addresses no compound (DMSO). Description: log2 fold change of degron read counts, EGFP-low vs EGFP+ sorted cells; higher = lower degron-EGFP level without compound (poor expression or instability). The note with it: compound: DMSO control; 18 h.
Take FTCDICGADFTQKGNLLRHIKL: the “log2 fold change of degron read counts” value is -2.72.

As for FNCPICGRFFTQKGNLLRHIKL, the “log2 fold change of degron read counts” value turned out to be 0.319.

On to LCCEICGFACTQKGNLLRHIKL, for which the “log2 fold change of degron read counts” value was -0.547.

Turning to FHCEICGHMFTQKGNLLRHIKL, the “log2 fold change of degron read counts” value is -0.838.

As for FVCDICGAFFTQKGNLLRHIKL, the “log2 fold change of degron read counts” value is -0.549.

As to FNCNVCGAWFTQKGNLLRHIKL, the “log2 fold change of degron read counts” value came to 0.57.

For LKCNQCGFWCTQKGNLLRHIKL, the “log2 fold change of degron read counts” value came to 1.32.

Regarding LTCPICGFMCTQKGNLLRHIKL, the “log2 fold change of degron read counts” value is 1.01.

FTCNQCGHDFTQKGNLLRHIKL: the “log2 fold change of degron read counts” value was -1.79.

As to FICEICGRSFTQKGNLLRHIKL, the “log2 fold change of degron read counts” value was -2.16.

For the sequence FQCDQCGAAFTQKGNLLRHIKL, the “log2 fold change of degron read counts” value is -1.74.

With FRCNQCGRDFTQKGNLLRHIKL, the “log2 fold change of degron read counts” value was -0.625.

Consider FKCEICGHVFTQKGNLLRHIKL, for which the “log2 fold change of degron read counts” value is -2.78.

Take FWCDQCGAMFTQKGNLLRHIKL: the “log2 fold change of degron read counts” value was -0.643.

On to FACNICGARFTQKGNLLRHIKL, for which the “log2 fold change of degron read counts” value came to 0.512.

As for FNCEICGACFTQKGNLLRHIKL, the “log2 fold change of degron read counts” value is -0.629.

As for LECEICGFKCTQKGNLLRHIKL, the “log2 fold change of degron read counts” value is -2.39.

With FKCNVCGAHFTQKGNLLRHIKL, the “log2 fold change of degron read counts” value was -0.522.

As to FCCSVCGHCFTQKGNLLRHIKL, the “log2 fold change of degron read counts” value was determined as 0.538.

In the case of LRCEICGFDCTQKGNLLRHIKL, the “log2 fold change of degron read counts” value is -0.206.

In the case of FYCPVCGAGFTQKGNLLRHIKL, the “log2 fold change of degron read counts” value is -0.759.

As for LWCPICGFMCTQKGNLLRHIKL, the “log2 fold change of degron read counts” value worked out at 3.07.

FLCDVCGATFTQKGNLLRHIKL: the “log2 fold change of degron read counts” value is -2.36.

With FWCNICGAFFTQKGNLLRHIKL, the “log2 fold change of degron read counts” value is 1.86.

FYCEICGRLFTQKGNLLRHIKL: the “log2 fold change of degron read counts” value was found to be 0.282.

As for FGCNVCGAMFTQKGNLLRHIKL, the “log2 fold change of degron read counts” value is -0.022.

In the case of FACPICGRPFTQKGNLLRHIKL, the “log2 fold change of degron read counts” value was 0.16.

Regarding FECNQCGREFTQKGNLLRHIKL, the “log2 fold change of degron read counts” value was -1.66.

Take FQCDICGAWFTQKGNLLRHIKL: the “log2 fold change of degron read counts” value is -0.123.

Regarding FECEQCGAIFTQKGNLLRHIKL, the “log2 fold change of degron read counts” value was -1.68.

In the case of FWCNQCGAPFTQKGNLLRHIKL, the “log2 fold change of degron read counts” value turned out to be 1.08.

Turning to FACEQCGANFTQKGNLLRHIKL, the “log2 fold change of degron read counts” value is -1.94.
